The supplement of paper PMC8512760
The other results are listed elsewhere or left out. Single values are uncertain, as repeats are few or missing.

Assays:
Experiment in all cases: cell viability relative to vehicle (% of vehicle); basal-like triple-negative breast cancer lines; higher = less cytotoxic
Details in all cases: 10 µM; 72 h
HCC-1143 = tested on: HCC-1143
HCC-1187 = tested on: HCC-1187
MDA-468 = tested on: MDA-468
SUM-149 = tested on: SUM-149
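Note: stably firefly luciferase-GFP labeled cells in 96-well plates, viability read as luciferase photon flux after d-luciferin addition, treated wells normalized to vehicle wells, single-dose high-throughput screen.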

Row | SMILES | cell viability (HCC-1143) | cell viability (HCC-1187) | cell viability (MDA-468) | cell viability (SUM-149)
1 | CC1(C)O[C@@H]2C[C@H]3[C@@H]4CCC5=CC(=O)C=C[C@]5(C)[C@@]4(F)[C@@H](O)C[C@]3(C)[C@]2(C(=O)CO)O1 [Triamcinolone Acetonide] | 87.4 | 124 | 180 | 195
2 | COc1ccc2nc(S(=O)Cc3ncc(C)c(OC)c3C)[nH]c2c1 (centres undefined) [Omeprazole] | 114 | 93.2 | 57 | 115
3 | Cl.Nc1ncnc2nc[nH]c12 [Adenine HCl] | 123 | 95 | 117 | 128
4 | CCCCc1oc2ccc(NS(C)(=O)=O)cc2c1C(=O)c1ccc(OCCCN(CCCC)CCCC)cc1 [Dronedarone] | 90.3 | 101 | 85.3 | 127
5 | Nc1[nH]c(=O)ncc1F [Flucytosine] | 92.3 | 81.9 | 99.7 | 95
6 | CCCc1nc2c(C)cc(-c3nc4ccccc4n3C)cc2n1Cc1ccc(-c2ccccc2C(=O)O)cc1 [Telmisattan] | 73.6 | 88.4 | 107 | 128
7 | O=S(=O)([O-])CCS.[Na+] [Mesna] | 106 | 83.9 | 112 | 107
8 | CC(C=CC1=C(C)CCCC1(C)C)=CC=CC(C)=CC(=O)O [Isotretinoin] | 90.4 | 77.4 | 91.6 | 143
9 | COC(=O)C1=COC(O)C2C(CO)=CCC12 (centres undefined) [Genipin] | 117 | 109 | 97.9 | 94.6
10 | CCCCOc1ccc(CC(=O)NO)cc1 [Bufexamac] | 119 | 86.4 | 123 | 144
11 | CCN(Cc1ccncc1)C(=O)C(CO)c1ccccc1 (centres undefined) [Tropicamide] | 84.8 | 87.9 | 93.2 | 122
12 | CCOC(=O)C(CCc1ccccc1)NC(C)C(=O)N1CCCC1C(=O)O.O=C(O)C=CC(=O)O (centres undefined) [Enalapril Maleate] | 126 | 103 | 106 | 96.3
13 | N#CC1CCCN1C(=O)CNC12CC3CC(CC(O)(C3)C1)C2 (centres undefined) [Vildagliptin (LAF-237)] | 120 | 101 | 97.3 | 119
14 | CN(C)Cc1c(C(=O)NCCOc2ccc(C(=O)NO)cc2)oc2ccccc12 | 48.5 | 40.1 | 70.4 | 6.09
15 | CCN1CCCC1CNC(=O)c1cc(S(N)(=O)=O)ccc1OC (centres undefined) [Levosulpiride] | 93 | 118 | 100 | 102
16 | CC1CCN(C(=O)CC#N)CC1N(C)c1ncnc2[nH]ccc12.O=C(O)CC(O)(CC(=O)O)C(=O)O (centres undefined) | 73.5 | 53.3 | 52.9 | 90.3
17 | O=C(NCCO[N+](=O)[O-])c1cccnc1 [Nicorandil] | 110 | 97.1 | 101 | 110
18 | COc1cc(Cc2cnc(N)nc2N)cc(OC)c1OC [Trimethoprim] | 105 | 116 | 93.2 | 98.5
19 | CCC1C(=O)N(C)c2cnc(Nc3ccc(C(=O)NC4CCC(N5CCN(CC6CC6)CC5)CC4)cc3OC)nc2N1C(C)C (centres undefined) [BI6727 (Volasertib)] | 79.2 | 90.9 | 104 | 102
20 | CN1C[C@@H]2c3ccccc3Oc3ccc(Cl)cc3[C@H]2C1.O=C(O)/C=C/C(=O)O [Asenapine] | 83.5 | 97.2 | 95.4 | 101
21 | NC(=O)C(CCC(F)(F)F)N(Cc1ccc(-c2ncon2)cc1F)S(=O)(=O)c1ccc(Cl)cc1 (centres undefined) | 76.3 | 91.5 | 103 | 111
22 | COc1ccc(O)cc1 [Mequinol] | 76.7 | 98.2 | 103 | 79.7
23 | CC(C(=O)O)c1ccc2c(c1)[nH]c1ccc(Cl)cc12 (centres undefined) [Carprofen] | 108 | 123 | 126 | 114
24 | NC(=O)CC[C@H](N)C(=O)O [L-Glutamine] | 70.3 | 100 | 110 | 92.5
25 | CS(=O)(=O)c1ccc(C(O)C(CF)NC(=O)C(Cl)Cl)cc1 (centres undefined) [Florfenicol] | 77 | 92.4 | 108 | 115
26 | COc1nc(C)nc(Cl)c1NC1=NCCN1 [Moxonidine] | 88.2 | 88.4 | 98.9 | 94.7
